According to PubChem BioAssay AID1963576 (National Center for Advancing Translational Sciences (NCATS), 2024):
Out of some 46,000 compounds screened, about 60 (0.1%) were called active. Another 3% or so got no clear call; they are omitted. Calls follow the shape of the dose curve; as a rule, active = well fitted inhibition curve with a large enough effect; inconclusive = small, poorly fitted or top-dose-only effect; inactive = no such curve, though single readings can be large or run the other way. The list shows a part of the results.

Assay: Primary qHTS assay for Inhibitors of ovarian cancer metastasis using an organotypic tumor microenvironment (TME) model. Also: nearly all actives have a fitted effect of over 65% in size.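 As to activity change, negative = inhibition: plate controls were DMSO wells for no effect and tomatine positive control wells for full effect.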
Settings: SKOV3ip1-GFP adhesion/invasion on 3D omental model, fluorescence; series mostly up to 45.8 µM; activity change, negative = inhibition: at the top concentration
Procedure, shortened: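 Primary human omental fibroblast/mesothelial 3D culture pre-formed 48 h. SKOV3ip1-GFP cells added with compounds (0.36-46 umol/L), incubated 2 h RT/16 h 37 C, fixed; GFP cells quantified at 488/509 nm.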

SMILES | activity change, negative = inhibition | outcome
CCOc1ccc(-c2nonc2NC(=O)c2oc3ccc(C)cc3c2C)cc1OCC | inactive: -20.8% | 
O=C(Nc1cc(-c2ccccc2F)nn1-c1ccccc1)c1ccccc1Br | inactive: -5.08% | 
CCCCCOC(=O)CSc1nc2sc3c(c2c(=O)n1-c1ccccc1)CC(C)(CC)OC3 (stereo not given) | inactive: -14.3% | 
Cc1ccc(C(=O)Nc2nc3nc(-c4ccccc4)cc(=O)n3[nH]2)cc1 | inactive: 6.41% | 
O=C(COc1ccccc1F)Nc1c(C(=O)Nc2cccc(F)c2)oc2ccccc12 |  | inactive
Cc1cccc(CSc2nc(-c3cccc(C)c3)nc3c2Cc2c(CO)cnc(C)c2O3)c1 | inactive: 3.27% | 
Cc1ccc(CN2CCCN(Cc3c(C)cc(C)cc3C)S2(=O)=O)cc1 | inactive: -2.87% | 
CCCSC1=NC2(CCN(C(=O)NC3CCCCC3)CC2)N=C1c1ccc(Cl)cc1 | inactive: 8.83% | 
O=C(CSc1nc2c(oc3ccccc32)c(=O)n1Cc1ccco1)Nc1ccccc1 |  | inactive
Cc1ccc(CNC(=O)CCS(=O)(=O)c2cc3c(cc2C)NC(=O)CO3)cc1 |  | inactive
CCOC(=O)c1cc(-c2ccccc2)n(CC(=O)Nc2ccc(CC)cc2)c1C | inactive: -10.3% | 
CCCN(CCC)c1nn2c(=O)c(C(=O)NCc3cc(Br)ccc3OC)cnc2s1 | inactive: 9.41% | 
COc1cc(Cl)c(C)cc1NC(=O)Cn1cc(S(=O)(=O)N2CCC(C)CC2)c2ccccc2c1=O |  | inactive
Cc1nn(Cc2noc(C(=O)NC(C)c3ccccc3)n2)c(C)c1Br (stereo not given) |  | inactive
Cc1ccc(N2CCN(S(=O)(=O)c3c(C)[nH]c(=O)[nH]c3=O)CC2C)cc1 (stereo not given) | inactive: -6.17% | 
COc1ccc(C)cc1NC(=O)COCc1cc(-c2ccc(F)cc2)on1 | inactive: 2.06% | 
CC(C)(C)C(=O)OCc1cc(=O)n2nc(C3CC3)sc2n1 | inactive: 0.319% | 
Cc1cccc(S(=O)(=O)c2cn(C)c3cc(N4CCN(c5ccc(F)cc5)CC4)c(F)cc3c2=O)c1 |  | inactive
COc1ccc(OC)c(CCNC(=O)CCn2c(=O)c3cccn3c3ccc(F)cc32)c1 | inactive: 3.25% | 
COc1cc(NS(=O)(=O)c2ccc(N)cc2)nc(OC)n1 | inactive: 5.62% | 
CC(C)c1ccc(NC(=O)CSC2=Nc3ccccc3C3=NC(CCC(=O)NCc4ccco4)C(=O)N23)cc1 (stereo not given) |  | inactive
Cc1ccc2c(=O)cc(C(=O)Nc3ccc(S(=O)(=O)N4CCCCCC4)cc3)oc2c1 | inactive: 4.2% | 
O=C(CSc1nc(=O)n(Cc2ccco2)c2c1CCC2)Nc1ccccc1C(F)(F)F | inactive: 6.76% | 
CCCCNC(=O)c1ccccc1NC(=O)CN(c1ccccc1)S(=O)(=O)N(C)C | inactive: 8.27% | 

SMILES | activity change, negative = inhibition | outcome
CC(C)n1cnc2c(NCCCCCCNC(=O)OC(C)(C)C)nc(NCCO)nc21 | inactive: -2.37% | 
Cc1ccc(CN2CCSc3ccc(C(=O)Nc4ccc(C)cc4)cc32)cc1 | inactive: -12.1% | 
CCN(Cc1ccccc1)C(=O)Cn1c(=O)n(-c2ccc(Cl)cc2)c(=O)c2c(C)c(C)sc21 | inactive: -17.7% | 
CCOC(=O)CNC(c1ccccc1)c1cc(Br)ccc1NC(=O)c1cccc(Cl)c1 (stereo not given) | inactive: 6.21% | 
CCc1ccc(NC(=O)C2CCCN(S(=O)(=O)c3ccc(F)cc3)C2)cc1 (stereo not given) | inactive: 1.54% | 
Cc1ccc(Cl)cc1N1CCN(C(=O)c2cc(S(=O)(=O)N3CCCC3)c[nH]2)CC1 | inactive: -23.5% | 
CC(=O)N1CCCc2cc(S(=O)(=O)N3CCC(C(=O)NCc4ccccc4)CC3)ccc21 | inactive: 6.16% | 
CCc1nnc(SCC(=O)N(CC)c2ccccc2)c2cc3oc(C)cc3n12 | inactive: 1.16% | 
COc1ccc(CC(=O)NCC(c2ccc(Cl)cc2)N2CCOCC2)cc1 (stereo not given) | inactive: 5.02% | 
Cc1ccc(C)c(Cn2c(=O)n(-c3ccc(Cl)cc3)c(=O)c3c(C)c(C)sc32)c1 | inactive: 2.19% | 
Cc1ccc(C)c(NC(=O)CSc2nc3c([nH]c4ccccc43)c(=O)n2-c2ccc(F)cc2)c1 |  | inactive
CCOc1ccc(OCC)c(NC(=O)c2cnc(SC)nc2-c2ccccc2)c1 |  | inactive
Cc1ccc(Cn2c(=O)n(Cc3ccco3)c(=O)c3oc4ccccc4c32)cc1 | inactive: -11.8% | 
Cc1ccc(C)c(Oc2nc3c(c(=O)n(C)c(=O)n3C)n2Cc2ccccc2)c1 |  | inactive
Cc1ccc(Cc2cn3cc(-c4ccccc4)nc3s2)cc1 |  | inactive
Cc1ccc(S(=O)(=O)c2nnn3c2nc(NC2CCCCC2)c2sccc23)cc1 | inactive: 4.3% | 
CN(C)S(=O)(=O)c1ccc2c(c1)nnn2CCNC(=O)Nc1ccc(Cl)cc1 |  | inactive
Cc1ccccc1OCc1nc2ccccc2n1Cc1ccccc1Cl | inactive: 0.778% | 
COc1ccc(C2=NS(=O)(=O)N(C)C(C(=O)N(C)Cc3ccccc3)=C2)cc1OC | inactive: -5.86% | 
CC(C)CCn1c(Oc2ccccc2F)nc2c1c(=O)n(C)c(=O)n2C | inactive: 1.8% | 
CCCCN(CC)C(=O)CCNS(=O)(=O)c1ccc2c(c1)c(=O)n(C)c(=O)n2C | inactive: 7.69% | 
CCS(=O)(=O)N1CCc2cc(C(=O)Nc3cccc(C(C)=O)c3)ccc21 |  | inactive
Cc1cccc(Nc2ccncc2S(=O)(=O)NC(=O)NC(C)C)c1 | inactive: -7.33% | 
CC(=O)c1ccc(NC(=O)CSc2cn(CC(=O)N(C(C)C)C(C)C)c3ccccc23)cc1 | inactive: -9.61% | 

SMILES | activity change, negative = inhibition | outcome
COC(=O)c1ccc(C(=O)OC)c(NC(=O)c2cc3nc(-c4ccc(C)cc4)cc(C(F)(F)F)n3n2)c1 | inactive: 1.21% | 
CCCNC(=O)C1Cc2cc(S(=O)(=O)N3CCCCCC3)ccc2N1C(C)=O (stereo not given) |  | inactive
CCCNC(=O)Cn1c(=O)c2cccn2c2cccnc21 |  | inactive
COc1ccc(C(=O)NCc2ccc3c(c2)CCN3C(=O)c2ccccc2)cc1 | inactive: 5.63% | 
CCCNC(=O)CCCN1C(=O)CCn2nc(-c3cccn3C)cc21 | inactive: 0.329% | 
CCc1ccc2oc(-c3ccc(NC(=O)c4cc5ccccc5o4)cc3)nc2c1 | inactive: 4.68% | 
COCCCNC(=O)c1sc2nc(C)c(C(=O)Nc3ccc(C)cc3C)c(-c3ccccc3Cl)c2c1N | inactive: 13.7% | 
CCc1cc(=O)oc2c(C)c3c(cc12)CN(CCc1ccccc1OC)CO3 | inactive: 4.31% | 
COCCNC(=O)c1nn(-c2ccc(C)cc2)c(=O)n(C)c1=O | inactive: 1.89% | 
O=C(CCSCc1cnn(-c2ccccc2)c1-n1cccc1)NCc1ccccc1Cl |  | inactive
Cc1ccc(Cl)cc1N1CCN(C(=O)c2ccc(CS(=O)c3ccccc3)o2)CC1 (stereo not given) |  | inactive
Cc1cc(C)cc(Nc2cc(C(=O)NCCCN(C)C3CCCCC3)c3ccccc3n2)c1 | inactive: -23.2% | 
CC(=O)N[C@H]1[C@@H]([C@H](O)[C@H](O)CO)OC(C(=O)O)=C[C@@H]1N=C(N)N | inactive: -8.39% | 
COc1ccc(NS(=O)(=O)c2ccc(-c3cnc(C4CC4)o3)cc2)cc1Cl |  | inactive
CC1CCN(S(=O)(=O)c2ccc3nc(NCc4ccccc4)ccc3c2)CC1 | inactive: -7.26% | 
COCCNC(=O)CCc1c(C)n(C)c2cc(-c3cc(OC)c(OC)c(OC)c3)nn2c1=O | inactive: 17.9% | 
COc1ccc(C(CNC(=O)c2oc3cc(C)c(Cl)cc3c2C)N2CCCCC2)cc1 (stereo not given) | inactive: 4.99% | 
Cn1c(SCc2cc(=O)c3cc(Cl)ccc3[nH]2)nnc1-c1ccccc1 |  | inactive
COc1cccc(Nc2nc3ccccc3c3nncn23)c1 | inactive: -7.17% | 
COC(=O)c1scc(-c2ccc(C)cc2)c1S(=O)(=O)N1CCN(c2ccc(C)cc2C)CC1 | inactive: 2.19% | 
O=C(Cn1nc(-c2ccc(Cl)cc2)c2ccccc2c1=O)Nc1cccc(C(F)(F)F)c1 | inactive: -2.43% | 
Cn1c(=O)c(=O)n(C)c2cc(C(=O)NCc3ccccc3Cl)ccc21 | inactive: -5.03% | 
CCN(CC)c1ccc(C2C(C(=O)Nc3ccccc3C)=C(C)Nc3ncnn32)cc1 (stereo not given) |  | inactive
COC(=O)CCCCCn1c(-c2ccccc2)cn2c3c(=O)n(C)c(=O)n(C)c3nc12 |  | inactive

SMILES | activity change, negative = inhibition | outcome
CCCCC(=O)Nc1ccc(OCc2cc(=O)n3c(C)csc3n2)cc1 |  | inactive
O=C(NCc1ccccc1Cl)c1c2c(nc3ccccc13)C(=O)N(C1CCCCC1)C2 | inactive: 1.84% | 
CCN(Cc1ccccc1)Cc1c(O)ccc2c(=O)c(-c3ccc(Cl)cc3)c(C(F)(F)F)oc12 | inactive: 1.69% | 
Cc1cc2c(cc1NC(=O)c1ccccc1Cl)n(C)c(=O)c(=O)n2C | inactive: -5.96% | 
Cc1cccc(CCn2c(=O)c3ccccc3n(CC(=O)Nc3ccccc3F)c2=O)c1 |  | inactive
COc1ccc(OC)c(C(=O)CSc2ncc3c(n2)-c2ccccc2N(Cc2ccccc2C)S3(=O)=O)c1 | inactive: 6.44% | 
Cc1ccn2c(=O)cc(CSc3nnc(C)s3)nc2c1 | inactive: 14.3% | 
Cc1ccn2cc(CNC(=O)c3cccc(C(F)(F)F)c3)nc2c1 | inactive: -12.3% | 
Cc1cccc(-c2noc(-c3ccccc3OCC(=O)Nc3ccccc3[N+](=O)[O-])n2)c1 | inactive: 3.55% | 
Cc1ccc2nc(-c3ccsc3)c(Nc3ccc(Cl)cc3)n2c1 | inactive: 7.95% | 
COc1ccc(-c2nnc(SCC(=O)N3CCc4ccccc43)o2)cc1OC | inactive: 4.53% | 
CCN(CC)CCCNC(=O)c1cn(CC(C)C)c(=O)c2c1c1ccccc1n2C | inactive: -7.18% | 
COc1ccc(OCC(=O)N(Cc2sccc2C)C2CCS(=O)(=O)C2)cc1 (stereo not given) | inactive: 4.05% | 
CCOC(=O)c1ccc(NC(=O)C(C)Sc2nc(=O)cc(N)n2CCc2ccccc2)cc1 (stereo not given) | inactive: 1.31% | 
COc1ccc(C(=O)CCC(=O)Nc2ccc(F)cc2F)cc1 | inactive: 0.673% | 
COc1ccc(F)cc1S(=O)(=O)Nc1ccc2c(c1)CCCN2C(=O)c1cccs1 | inactive: 6.35% | 
CCn1c2c(c(=O)n3ncc(C(=O)N4CCN(c5ccc(C(C)=O)cc5)CC4)c13)CN(Cc1ccc(OC)cc1)CC2 | inactive: -5.32% | 
Cc1ccc(C)c(N2C(=O)N(Cc3cccc(C(F)(F)F)c3)c3ccccc3S2(=O)=O)c1 | inactive: 22.3% | 
O=C(Nc1ccc(F)cc1F)c1cc(S(=O)(=O)N2CCCCC2)c[nH]1 |  | inactive
CCN(CC)C(=O)Cn1c(=O)n(Cc2ccc(C(=O)NCCCOC)cc2)c(=O)c2ccccc21 | inactive: -8.42% | 
NS(=O)(=O)c1ccc(NC(=O)COc2ccc(S(=O)(=O)NC3CCCCC3)cc2)cc1 |  | inactive
CCOC(=O)C1=C(C)N=C2SCCC(=O)N2C1c1ccc(OCc2ccccc2)c(OC)c1 (stereo not given) | inactive: -3.62% | 
Cc1cc(NC(=O)c2cc(Cl)ccc2Cl)ccc1-c1cc2ccccc2oc1=O | inactive: -15.1% | 
